Test results as given in PubChem BioAssay AID493208 (National Center for Advancing Translational Sciences (NCATS), 2011).
Out of some 44,000 compounds screened, about 340 (0.77%) were called active. Not shown: some 5% with an inconclusive outcome. Calls come from the whole dose curve; as a rule, active = well fitted inhibition curve with a large enough effect; inconclusive = small, poorly fitted or top-dose-only effect; inactive = flat fitted curve, though single readings scatter. This is one part of the list.

Experiment: Acumen qHTS Assay for Inhibitors of the mTORC1 Signaling Pathway in MEF (Tsc2-/-, p53-/-) Cells: Sytravon; note: nearly all actives have a fitted effect of over 50% in size;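 for activity change, negative = inhibition: plate controls were DMSO for no effect and rapamycin for full effect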
Conditions: phospho-rpS6 immunofluorescence/PI, 24 h; series mostly up to 38.3 µM; activity change, negative = inhibition: at the top concentration
Outline: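 Read-out: phospho-S6 Alexa-488 intensity over PI intensity per well, scored as % active cells using thresholds from rapamycin (7.5 nM) and DMSO controls. Tsc2-/-, p53-/- MEFs exposed to compound for 24 h; PI cell count recorded as viability.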
Potency is the fitted concentration of half-maximal effect.

Potency, active:
CCN1CCN(c2cc(C)c3cc(NC(=O)/C=C/c4ccc(OCCC(C)C)cc4)ccc3n2)CC1 4140 nM, CCC(C)S(=O)(=O)c1oc(-c2ccc(F)cc2)nc1S(=O)(=O)c1ccc(F)cc1 (configuration not stated) 826 nM

Activity change, negative = inhibition, inactive:
CCc1nnc(SCc2nc(-c3cccc(C)c3)oc2C)c2cc3sc(C)cc3n12 -0.834%, COc1ccc(C(=O)Nc2cc(NC(=O)c3ccco3)ccc2OC)cc1Cl 1.16%, Cc1ccc(NC(=O)CSc2nc(C3CCCC3)nc3c2c(=O)n(C)c(=O)n3C)c(C)c1 -1.41%, CCOC(=O)c1c(-c2ccccc2)oc2cc(Br)c(OCc3ccccc3)cc12 4.41%, Cc1ccc(OCCCCn2nnc3sc4c(c3c2=O)CCC(C)C4)cc1 (configuration not stated) 0.525%, CCn1c(=N)c(C(=O)NC2CCCC2)cc2c(=O)n3cc(C)ccc3nc21 0.137%, CCOc1ccc(C(=O)NCCc2csc(-c3cccnc3)n2)cc1 -10.9%, Cc1ccc(NC(=O)C2CCCN(S(=O)(=O)c3cccc4nsnc34)C2)c(C)c1 (configuration not stated) 2.81%, O=C(Cn1c(=O)n(-c2ccc(F)c(Cl)c2)c(=O)c2sc3ccccc3c21)NC1CCCCC1 -0.281%, Cc1ccc(Cl)cc1Nc1nn2c(=O)c3ccc(C(=O)NC4CCC(C)CC4)cc3nc2s1 (configuration not stated) 1.55%, CCNC(=O)C1CCCN(c2nn3cc(-c4ccc(C)cc4)nc3s2)C1 (configuration not stated) 4.19%, CC(C)c1ccc(CNCCSc2nnnn2-c2ccccc2)cc1 -6.5%, CCOc1ccc(-n2nc3ccc(NC(=O)COc4ccccc4)cc3n2)cc1 3.05%, Cc1cc(C)cc(NC(=O)C2CCN(c3nc4ccccc4nc3C(F)(F)F)CC2)c1 2.54%, Cc1cccc(N2CCN(C(=O)Cc3c(C(=O)O)c(C)cn3C)CC2C)c1 (configuration not stated) -3.12%, CN(Cc1ccccc1)C(=O)c1ccc(CSc2nc3cccnc3n2Cc2ccccc2)cc1 -7.72%, COc1ccccc1CCNC(=O)C1(c2cccs2)CCOCC1 -4.71%, CCc1cccc(NC(=O)CCn2nc(C)cc2C)c1 -5.55%, COC(=O)c1c(NC(=O)COc2ccc(C(C)C)cc2)sc2c1CCCC2 -1.42%, COc1ccc(C2CC(=O)Nc3c2c(C)nn3-c2nc(C)cc(C)n2)c(OC)c1OC (configuration not stated) -8.62%, CCC(=O)NCCc1sc2nc(-c3ccc(OC)cc3)nn2c1C -0.0671%, COc1ccc(CCNC(=O)c2ccc3nc(CCc4ccccc4)oc3c2)cc1OC 4.17%, COc1ccc(NC(=O)Cn2c(=O)oc3cc(S(=O)(=O)N4CCCC4)ccc32)cc1OC 0.985%, CCCS(=O)(=O)Nc1cccc(-c2cn3ccsc3n2)c1 0%, Cc1cccc(CSc2nc3ccncc3n2CC(=O)N(C)C2CCCCC2)c1 -3.92%
